Results from PMC7617869, “Molecular glues that inhibit deubiquitylase activity and inflammatory signaling” (Nature Structural & Molecular Biology, 2025).
Values joined by “and” are separate entries in the source; they are usually repeats but may differ in a detail not shown here. Equal entries are not always repeated. The source gives many values for each of these; only a part stands here.

Experiments:
[1] = target: T1, BRISC (Homo sapiens, UniProt P46736+Q15018+Q9NXR7); assay: Michaelis–Menten analysis of BRISC inhibition; assay type: biochemical; conditions: di-Ub-TAMRA 1000 nM
T1 construct: made in house; host or cells: Spodoptera frugiperda (Sf9) insect cells, MultiBac
Method: (§1) IQF assays were performed in DUB reaction buffer containing 50 mM HEPES–NaOH pH 7.0, 100 mM NaCl, 0.1 mg ml^−1 BSA, 1 mM DTT and 0.03% v/v Brij-35. […] The final concentration of BRISC WT, all BRISC mutants, HsBRISCΔLoop, MmBRISC and DrBRISCΔNΔC was 1 nM. Other enzymes were tested at the following concentrations: 5 nM ARISC (FL), 10 nM CfBRISCΔNΔC, 250 nM AMSH* (ref. [43]), 500 nM USP2 and 1 μM trypsin (Sigma, 9002-07-7). For Michaelis–Menten experiments, 1 nM BRISC with 0–1 μM IQF K63-linked diubiquitin substrate was used. Michaelis–Menten analyses and Lineweaver–Burk plots were calculated using GraphPad Prism (version 9.0).

[2] = target: T1, BRISC; assay: BRISC DUB activity assay (IQF K63-linked diubiquitin); assay type: biochemical
Method: as §1
To assess enzymatic activity, BRISC complexes were diluted to concentrations between 1 nM and 50 nM. […] Then, 20-μl enzyme reactions were carried out in 384-well black flat-bottom low-flange plates (Corning, 35373). DUB activity was measured using IQF K63-linked diubiquitin (LifeSensors, DU6303) at 50 nM. Cleaved diubiquitin was monitored by measuring fluorescence intensity (excitation, 544 nm; emission, 575 nm; dichroic mirror, 560 nm). Fluorescence intensity was measured every minute for 30 min at 30 °C. Fluorescence intensity units were plotted against time to generate a linear reaction progress curve, where the initial velocity (V0) corresponds to the gradient of the curve (typically achieved within 15 min). IC50 values were calculated using the GraphPad Prism (version 9.0) built-in dose–response equation for inhibitor concentration versus response (variable slope).

`O=C(NC1C2CNCC21)c1nn(C(=O)c2c(Cl)cccc2Cl)cc1NC(=O)c1c(Cl)cccc1Cl` (stereo not drawn) [FX-171-C] was tested, and the “Initial velocity (FU/min)” value ([1]; inhibitor 3.12 μM) was 979 FU/min and 990.8 FU/min, the “Initial velocity (FU/min)” value ([1]; inhibitor 12.5 μM) was 493.9 FU/min and 641.6 FU/min and 679 FU/min and the “Normalised V0” value ([2]; BRISC WT, FX-171-C 0.0035 μM) was 0.9562 and 0.7724 and 0.9883. The “Normalised V0” value ([2]; BRISC WT, FX-171-C 0.035 μM) was 0.9974 and 0.792 and 0.9381, the “Normalised V0” value ([2]; BRISC WT, FX-171-C 0.35 μM) was 0.7232 and 0.6751 and the “Normalised V0” value ([2]; BRISC WT, FX-171-C 6.25 μM) was 0.161 and 0.1849. The “Normalised V0” value ([2]; Fig. 1g, BRISC, FX-171-C 0.013 μM) was 0.9661 and 1.259 and 1.028 and 1.106 and 0.9509 and 0.8874, the “Normalised V0” value ([2]; Fig. 1g, BRISC, FX-171-C 0.02 μM) was 0.8164 and 1.359 and 1.027 and the “Normalised V0” value ([2]; Fig. 1g, BRISC, FX-171-C 0.0399999 μM) was 0.8327 and 1.212 and 1.032. The “Normalised V0” value ([2]; Fig. 1g, BRISC, FX-171-C 0.0599997 μM) was 1.179 and 1.007, the “Normalised V0” value ([2]; Fig. 1g, BRISC, FX-171-C 19.96 μM) was 0.1876 and 0.174 and 0.161 and the “Normalised V0” value ([2]; Fig. 1g, BRISC, FX-171-C 31.4999 μM) was 0.1887 and 0.2421 and 0.2131. For the same compound, the “Normalised V0” value ([2]; Fig. 1g, BRISC, FX-171-C 79.7601 μM) was 0.2227 and 0.2164 and 0.1439 and the “Normalised V0” value ([2]; Fig. 1g, BRISC, FX-171-C 125.99 μM) was 0.1622 and 0.2082 and 0.2077.

In the case of `O=C(NC1CCNCC1)c1nn(C(=O)c2c(Cl)cccc2Cl)cc1NC(=O)c1c(Cl)cccc1Cl` [JMS-175-2], the “Normalised V0” value ([2]; Fig. 1e, BRISC, JMS-175-2 0.013 μM) is reported as 0.9583 and 0.7384 and 1.046 and 0.967 and 0.8595 and 0.8402, the “Normalised V0” value ([2]; Fig. 1e, BRISC, JMS-175-2 0.02 μM) is reported as 0.8771 and 0.8197 and 1.004 and the “Normalised V0” value ([2]; Fig. 1e, BRISC, JMS-175-2 0.0399999 μM) is reported as 1.299 and 0.7892 and 1.03. The “Normalised V0” value ([2]; Fig. 1e, BRISC, JMS-175-2 0.0599997 μM) was 0.839 and 0.6819 and 0.9433, the “Normalised V0” value ([2]; Fig. 1e, BRISC, JMS-175-2 0.0799994 μM) was 0.9097 and 0.9012 and 0.9628 and the “Normalised V0” value ([2]; Fig. 1e, BRISC, JMS-175-2 0.119998 μM) was 1.013 and 0.9179 and 1.054. For the same compound, the “Normalised V0” value ([2]; Fig. 1e, BRISC, JMS-175-2 0.199996 μM) was 1.253 and 0.7708 and 1.101, the “Normalised V0” value ([2]; Fig. 1e, BRISC, JMS-175-2 0.499975 μM) was 0.5936 and 0.7022 and 0.9756 and the “Normalised V0” value ([2]; Fig. 1e, BRISC, JMS-175-2 0.799936 μM) was 0.9296 and 0.6017 and 0.8518. The “Normalised V0” value ([2]; Fig. 1e, BRISC, JMS-175-2 1.9996 μM) was 0.6268, the “Normalised V0” value ([2]; Fig. 1e, BRISC, JMS-175-2 19.96 μM) was 0.3284 and 0.5166 and 0.3249 and the “Normalised V0” value ([2]; Fig. 1e, BRISC, JMS-175-2 50.147 μM) was 0.2621 and 0.1377 and 0.1733. For the same compound, the “Normalised V0” value ([2]; Fig. 1e, BRISC, JMS-175-2 79.7601 μM) was 0.2164 and 0.1356 and 0.1726.
